Source: the supplement of paper PMC10338343
± gives the standard deviation. In all, about 3,700 sequences were measured (“pre-steady-state target cleavage rate”: median about 0.02, highest 2% from about 0.23 on). The entries are a selection whose mix differs from that of the whole data set.

System: MILI (PIWIL2) piRISC loaded with Kctd7 piRNA (26 nt)
Test: pre-steady-state target cleavage rate (min^-1); MIWI and MILI are mouse PIWI proteins and EfPiwi is from a freshwater sponge; tags in brackets are library labels; higher = faster piRNA-guided slicing of the target
Conditions: guide: Kctd7 piRNA 5'p-UGUUAAUCUCUCAGAGAAGGUGACAG; auxiliary factor: 500 nM mouse GTSF1
How it was run: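 Sequencing of uncleaved targets, normalised to depth and to weakly complementary targets, was the readout of this Cleave-'n-Seq assay. A transcribed, DNA-blocked target RNA library (0.1 nM) was mixed with 1 nM active affinity-purified piRISC carrying one synthetic guide, with or without 500 nM GTSF1 partner protein, in HEPES–potassium acetate buffer at 33 °C for 0–8 or 0–960 min. Three trials were pooled, k3 was capped at 0.0001 min^-1, and a burst-and-steady-state fit gave the pre-steady-state cleavage rate.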

Row | Sequence | pre-steady-state target cleavage rate
1 | UAGUGACAGACCUUCUCUGAGGGAUUAACA | 0.0385 ± 0.013
2 | UAGUGUGUCACCUCCUCUGAGAGAUUAACA | 0.189 ± 0.014
3 | UAGUGACAGUGCUUCGCUGAGAGAUUAACA | 0.0288 ± 0.0063
4 | UAGUGACAGUGCUUCUCUGAGAGAUUUAACA | 0.0519 ± 0.0095
5 | UAGUGACAGUGGUUCGCUGAGAGAUUAACA | 0.00402 ± 0.002
6 | UAGUGACACACCUACACUGAGAGAUUAACA | 0.0756 ± 0.011
7 | UAGUCUGUGUCCUUCUCUGAGAGAUUAUGA | 0.00809 ± 0.0036
8 | UAGUCUGUCACCUUCUCUCAGAGUUUAACA | 0.0257 ± 0.008
9 | UAGUGACACACCUUCUCUGAGUAGAUUAACA | 0.00545 ± 0.0038
10 | UAGUGACAGACCUUCUCUGAGAAGAUUAACA | 0.0136 ± 0.0056
11 | UAGUGACAGUCCUUCUCUGAGAGAUUAGACA | 0.0313 ± 0.011
12 | UAGUGACAGACCUUCUCUGAGAGAGUAACA | 0.0379 ± 0.015
13 | UAGUCUGUCACCUUCUCUGAGUGAUUAACA | 0.00807 ± 0.0044
14 | UAGUGAGUCACCUUCACUGAGAGAUUAACA | 0.191 ± 0.014
15 | UAGUGACAGUGGAAGAGACUCAGAAUAACA | < 0.0001
16 | UAGUCUGUCUCCUUCUCUGACAGAUUAACA | 0.0107 ± 0.0025
17 | UAGUGACAGACCUACUCUGAGAGAUUAAGA | 0.0116 ± 0.0044
18 | UAGUCUGUCACCUUCUCUCAGAGAAUAACA | 0.00547 ± 0.0042
19 | UAGUGUGUCACCUUGUCUGAGACAUUAACA | 0.0447 ± 0.013
20 | UAGUGAGUCUCCUUCUCUGAGAGAUUAAGA | 0.0177 ± 0.0071
21 | UAGUGUGUCACCUUCACUGAGAGAUUAUGA | 0.0206 ± 0.012
22 | UAGUGACUCACCUUCUCUCAGAGAUUAAGA | 0.00948 ± 0.0055
23 | UAGUGACACACCUAGUCUGAGAGAUUAACA | 0.0588 ± 0.0073
24 | UAGUGACAGUGCUUCUCUGAGAGAAUAAGA | < 0.0001

Row | Sequence | pre-steady-state target cleavage rate
25 | UAGUGACAGUGGAACCUCUGAGAGAUUAACA | 0.00796 ± 0.0014
26 | UAGUGACACACCUUCUCUGAGAGAUUAAUA | 0.183 ± 0.033
27 | UAGUCUGUCACCUUCUCUGUGAGAUUUACA | 0.0713 ± 0.016
28 | UAGUGACAGUGGAUCUCUGAGACGAUUAACA | < 0.0001
29 | UAGUGACAGACCUUCUCUGAGAGAUGUAACA | 0.0877 ± 0.012
30 | UAGUGAGUCACCAUGUCUGAGAGAUUAACA | 0.0635 ± 0.011
31 | UAGUGACUCACCUUCUCUGAGACAUUAACA | 0.0875 ± 0.012
32 | UAGUGACACACCUUCUGUGACAGAUUAACA | 0.0375 ± 0.012
33 | UAGUGACUCACCUUCUCUGAGAGAUAACA | 0.0122 ± 0.0048
34 | UAGUGACUCACCUUCUGUGUGAGAUUAACA | 0.0184 ± 0.0032
35 | UAGUGACAGACCUUCUCUGAGAGAUUAACG [g2:g21:cont:t1G] | 0.0801 ± 0.019
36 | UAGUGAGUCACCUUCUGUGAGAGAUUAUCA | 0.0169 ± 0.0072
37 | UAGUGACAGACCUUGUCUGAGAGAUUUACA | 0.0122 ± 0.0073
38 | UAGUGAGUCAGCUUCUCUGAGAGAUUAUCA | 0.0836 ± 0.016
39 | UAGUCUCACACCUUCUCUGAGAGAUUAUGA | 0.00641 ± 0.0043
40 | UAGUCUGUGACCUUCUCUGAGAGAUUAUCA | 0.0656 ± 0.0094
41 | UAGUGACUCACCAUCACUGAGAGAUUAACA | 0.0863 ± 0.0095
42 | UAGUGACAGUGCUUCUCUGACAGAUUAUCA | < 0.0001
43 | UAGUGACACACCUUCUCUGUGAGAUUAUCA | 0.0641 ± 0.018
44 | UAGUGACAGACCAUCUCUGACAGAUUAACA | 0.00938 ± 0.004
45 | UAGUGACAGUGGUUGUCUGAGAGAUUAACA | 0.00764 ± 0.0027
46 | UAGUGACAGACCAACUCUGAGAGAUUAACA | 0.0108 ± 0.0026
47 | UAGUCUCUCACCUUCUCUGAGAGAUAAACA | 0.0206 ± 0.0076
48 | UAGUCUGUCACCUACUCAGAGAGAUUAACA | 0.103 ± 0.01

Row | Sequence | pre-steady-state target cleavage rate
49 | UAGUGACGCACCUUCUCUGAGAGAUUAACA | 0.186 ± 0.015
50 | UAGUGACUCACCUACUCUGUGAGAUUAACA | 0.0356 ± 0.0032
51 | UAGUGACAGUCCGUUCUCUGAGAGAUUAACA | 0.116 ± 0.0067
52 | UAGUGACAGUGGUUCUCAGAGAGAUUUACA | < 0.0001
53 | UAGUCUGUCACCUUCUCAGUGAGAUUAACA | 0.0281 ± 0.0036
54 | UAGUGACAGUGGAAGAGUGAAAGAUUAACA | < 0.0001
55 | UAGUGUGUCACCUUCUCUGAGAGACUAACA | 0.137 ± 0.031
56 | UAGUGACUCACCUUCUCUGAGACAUUAUCA | 0.00475 ± 0.0037
57 | UAGUGUGUCACCAUUCUCUGAGAGAUUAACA | 0.154 ± 0.012
58 | UAGUGAGUGUCCUUCUCUGAGAGAUUAUGA | 0.00399 ± 0.0033
59 | UAGUGUUCACCUUCUCUGAGAGAUUAACA | 0.177 ± 0.019
60 | UAGUGACUCACCGUUCUCUGAGAGAUUAACA | 0.134 ± 0.0075
61 | UAGUGACAGUGCUUCUCUGUGAGAUUAUCA | 0.00569 ± 0.0016
62 | UAGUGUGUCACCUUCUCUGAGACAUUAACA | 0.146 ± 0.028
63 | UAGUGUCUCACCUUCUCUGAGAGAAUAACA | 0.0906 ± 0.022
64 | UAGUGAGUCACCAACUCUGAGAGAUUAAGA | 0.0573 ± 0.012
65 | UAGUGACAGUGCUUCUUGAGAGAUUAACA | 0.00591 ± 0.0035
66 | UAGUGAGUCACCUUCUCACAGAGAUUAACA | 0.0181 ± 0.004
67 | UAGUGUGUGACCUUCUCUGAGAGAUUAACA | 0.172 ± 0.014
68 | UAGUGACUACACCUUCUCUGAGAGAUUAACA | 0.149 ± 0.0088
69 | UAGUGUGUCGCCUUCUCUGAGAGAUUAACA | 0.212 ± 0.018
70 | UAGUGACACACCUUCACUGAGAGAUAAACA | 0.0691 ± 0.018
71 | UAGUGACAGACCUUCUCUGAGAGAUUAAAA | 0.0931 ± 0.029
